Over roughly 33,000 sequences, “E-score (-0.5 to 0.5)” has its median near -0.013; the highest 2% begin near 0.3. The list shows a part of the results.
target: T1, Msn1 (UniProt P22148); experiment: PBM E-score (8-mer binding enrichment) (E-score (-0.5 to 0.5)); higher = stronger / more preferred TF binding; most listed sequences are background and not binding sites; details: protein concentration: 200 nM; construct: GST-full length
T1 sequence: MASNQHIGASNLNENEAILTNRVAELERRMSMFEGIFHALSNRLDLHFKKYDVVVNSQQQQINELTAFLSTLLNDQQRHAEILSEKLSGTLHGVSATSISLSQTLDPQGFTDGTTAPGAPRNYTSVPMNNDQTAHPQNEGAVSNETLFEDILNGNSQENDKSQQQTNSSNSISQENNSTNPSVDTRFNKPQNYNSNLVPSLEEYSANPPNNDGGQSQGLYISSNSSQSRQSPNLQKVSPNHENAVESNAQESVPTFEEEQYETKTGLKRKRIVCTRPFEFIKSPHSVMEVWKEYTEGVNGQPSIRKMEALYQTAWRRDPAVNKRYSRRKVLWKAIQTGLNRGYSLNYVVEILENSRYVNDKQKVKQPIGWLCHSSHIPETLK
Procedure, shortened: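 Yeast transcription factors, full-length or as DNA-binding domains, were expressed with a GST tag using PURExpress in vitro transcription/translation. At about 100-200 nM they were applied to universal all-10-mer Agilent arrays, double-stranded by primer extension on fresh or once-stripped slides. Fluorescent anti-GST detected bound protein, and masliner normalised the scans. E-scores for ungapped eight-base words, pooled with reverse complements, came from the Universal PBM Analysis Suite.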

| Sequence | PBM E-score |
| --- | --- |
| CTACTCAC | -0.236 |
| AACGGTTG | -0.00479 |
| CTAACTCA | -0.179 |
| ATCGAACA | -0.0744 |
| CTAGATTC | -0.0654 |
| CGGATGGC | -0.113 |
| GCGTTCGA | 0.0472 |
| ACATTTTA | 0.377 |
| CCCAATGC | -0.207 |
| CCCTGGTC | -0.358 |
| ACCTGAAT | 0.0755 |
| GTAATTTA | 0.0198 |
| GCGCGGAC | 0.184 |
| CGTTTTAA | 0.064 |
| ACCAAAGG | -0.259 |
| ATCAAGCA | -0.116 |
| CTGCGGTC | -0.0969 |
| TATGACGA | 0.11 |
| AGTCTATG | -0.0171 |
| CCTTAAAA | 0.133 |
| ATCCATAG | -0.0469 |
| CCAGTATA | -0.078 |
| ATGAAGAA | 0.0411 |
| GCTCATAC | -0.0219 |
| GAAAGCCC | -0.0697 |

| Sequence | PBM E-score |
| --- | --- |
| ATACTGGC | -0.127 |
| AACGTGGT | -0.141 |
| GATCCACC | -0.127 |
| GAATTCTC | 0.0968 |
| AGAGCCCA | -0.14 |
| GGCTGGTA | -0.122 |
| CCGATTCC | -0.0466 |
| AGGTGCAG | -0.191 |
| CCATCGGG | -0.00932 |
| AGTTGTGC | -0.273 |
| TAAGGAAA | 0.056 |
| CGGTTCGA | 0.0338 |
| AGAGCCGG | -0.174 |
| ATTGTTAC | 0.178 |
| CTGGCAAG | 0.12 |
| CAGTAGAG | -0.17 |
| AGCTTATG | 0.148 |
| ATTATCTC | 0.00375 |
| AAAAGACG | 0.135 |
| ACGTCTGC | 0.00514 |
| ACAAGTTA | 0.153 |
| GGTGCAAC | -0.217 |
| GAGTCGGA | 0.0815 |
| ACGCCGAG | -0.00584 |
| AGCTCGCG | -0.0186 |

| Sequence | PBM E-score |
| --- | --- |
| CACGACCG | -0.161 |
| AGGACGCG | 0.259 |
| ACACCTCG | -0.0586 |
| GAGGACGA | -0.026 |
| CTCCCTGC | -0.26 |
| ATTGCACG | 0.0556 |
| CGAAGAAC | 0.0649 |
| AGTCTCTA | -0.0584 |
| AATTAGTA | 0.211 |
| CCGGTAGC | -0.213 |
| CTCAGTTA | 0.0335 |
| CTCTCTCC | -0.325 |
| CGGTCGAG | -0.111 |
| GTGCGAGA | 0.0839 |
| TGATGAAA | 0.0157 |
| GCAGGAAA | 0.102 |
| TCATTGGA | 0.0486 |
| CTCATTAA | 0.0526 |
| CCCTATGA | -0.0647 |
| CCATTGCG | -0.236 |
| ATAAGCAA | -0.0425 |
| TGAGTACA | 0.231 |
| TGAGACAA | 0.397 |
| AAGGCACT | -0.192 |
| ATGCGGTG | -0.273 |

| Sequence | PBM E-score |
| --- | --- |
| GAACCATA | 0.171 |
| CCTTGAAA | 0.0281 |
| CCGTGCAA | -0.0163 |
| AGAGTAAG | -0.0354 |
| GGATGACC | -0.177 |
| AACACTAT | 0.215 |
| AGTGTCAC | -0.0188 |
| CTGTCGTC | 0.174 |
| AGGGGTCG | -0.391 |
| CTGCTGAA | -0.0537 |
| GACCAGCC | -0.122 |
| TACAACTA | 0.0189 |
| AGCAGCAC | -0.0943 |
| ATGAAACA | -0.013 |
| GACCGAGC | -0.11 |
| ACTACTCT | -0.0492 |
| ACTGGACA | 0.374 |
| ACGTGACA | 0.27 |
| AGAAACCT | -0.106 |
| ACACCGAA | 0.171 |
| GTCCGTCA | 0.225 |
| AGCGTCTA | -0.176 |
| CAGCGTTC | -0.0931 |
| AATGTATA | 0.323 |
| GCATGGAA | -0.152 |

| Sequence | PBM E-score |
| --- | --- |
| GCAATAAC | 0.0837 |
| GACCGACA | 0.161 |
| GCTTTATA | -0.0159 |
| AATAGGAC | 0.387 |
| AATCGTAC | 0.0195 |
| ATAGTATA | 0.0628 |
| CTTCAAAA | 0.0311 |
| CAGTCAGC | -0.297 |
| AAAATGGA | 0.294 |
| GAATCGAA | 0.015 |
| ACTCAATA | 0.194 |
| CATGTACG | 0.195 |
| AGCGCTTG | -0.0326 |
| GTGGTAAC | 0.0646 |
| ATATGGAA | 0.057 |
| CGTCAAAA | 0.125 |
| CTGGTAGC | 0.0885 |
| CATAGTCG | 0.08 |
| ACCGGACG | -0.0239 |
| AAGAATGC | -0.0519 |
| CGTATTGA | -0.0137 |
| ACCCTCCG | -0.278 |
| CAAGGACA | 0.484 |
| AACAACAG | 0.19 |
| ACTATAAA | 0.254 |

| Sequence | PBM E-score |
| --- | --- |
| GGGCACTA | -0.144 |
| ATATCTTG | 0.0178 |
| AATCGACG | -0.04 |
| AGTTCAGC | -0.139 |
| ATGAAGTA | 0.0825 |
| TAAAAATA | 0.194 |
| AATCTCGT | -0.00803 |
| CCTCACAA | -0.0919 |
| GAATATAC | -0.0522 |
| CGATTGGA | -0.00295 |
| GTCGTCAA | 0.091 |
| AGAGTGTC | 0.229 |
| CTCAAAGA | -0.0783 |
| ATATGCAT | -0.0416 |
| GTATAGTA | 0.195 |
| CAGGTCCC | -0.309 |
| AGCACATG | -0.0192 |
| ACAGAAAG | 0.00925 |
| AACAGTGC | 0.00413 |
| CTTAATAA | 0.0259 |
| GAGACAAA | 0.442 |
| CACGAGTG | -0.2 |
| GAAATAAC | 0.157 |
| GGCGGTGA | -0.131 |
| ACCTTTAC | -0.0103 |

| Sequence | PBM E-score |
| --- | --- |
| ACGGCTAA | 0.113 |
| GCAGTCGA | -0.189 |
| CGCGCCCA | -0.0844 |
| TAACTTAA | 0.269 |
| TATCAACA | -0.0729 |
| AAAACGAT | 0.0794 |
| CAAGGAGA | -0.0916 |
| ATTATACA | 0.126 |
| CCGAACCG | 0.00404 |
| AGCGACAT | 0.252 |
| CAACAGCG | -0.192 |
| CGGAGGAG | -0.119 |
| ACGCTCGG | 0.053 |
| AACGCCCT | -0.158 |
| CTTAAGTC | 0.0734 |
| GAGGGACC | -0.268 |
| CAAATCGC | -0.0738 |
| GGGGCCAC | -0.325 |
| GCCGGCAC | 0.115 |
| GGATGCAC | -0.15 |
| ATTCGAAA | 0.0661 |
| AGTTGGTC | -0.0955 |
